Laboratory results published in the supplement of paper PMC8728848.
Some of the results follow.

Key:
Experiment in all cases: glycan array binding signal (z-score within array); higher = stronger binding
Details in all cases: glycan notation: IUPAC condensed, linker removed; mutation: R74S
Neu5Ac(a2-3)GalNAc = molecular target: Neu5Ac(a2-3)GalNAc
Procedure, shortened: (§1)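 The binding signal is a Z-score computed within each array and averaged over linkers. Arrays of the same protein sequence at different concentrations or buffers were also averaged together. Data originate from 3228 arrays in the Consortium for Functional Glycomics database, kept only where the protein sequence was available.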

[1] = molecular target: Neu5Ac(a2-3)GalNAc(b1-4)GlcNAc
Procedure, shortened: as §1

[2] = molecular target: Neu5Ac(a2-3)[GalNAc(b1-4)]Gal(b1-4)Glc
Procedure, shortened: as §1

[3] = molecular target: Neu5Ac(a2-3)[GalNAc(b1-4)]Gal(b1-4)GlcNAc
Procedure, shortened: as §1

[4] = molecular target: Neu5Ac(a2-3)[GalNAc(b1-4)]Gal(b1-4)GlcNAc(b1-3)GalNAc
Procedure, shortened: as §1

[5] = molecular target: Neu5Ac(a2-3)[Neu5Ac(a2-6)]GalNAc
Procedure, shortened: as §1

Neu5Ac(a2-6)Gal = molecular target: Neu5Ac(a2-6)Gal
Procedure, shortened: as §1

[6] = molecular target: Neu5Ac(a2-6)Gal(b1-3)GlcNAc(b1-3)[Gal(b1-4)GlcNAc(b1-6)]Gal(b1-4)Glc
Procedure, shortened: as §1

Neu5Ac(a2-6)Gal(b1-4)Glc = molecular target: Neu5Ac(a2-6)Gal(b1-4)Glc
Procedure, shortened: as §1

[7] = molecular target: Neu5Ac(a2-6)Gal(b1-4)GlcNAc
Procedure, shortened: as §1

[8] = molecular target: Neu5Ac(a2-6)Gal(b1-4)GlcNAc(b1-2)Man
Procedure, shortened: as §1

[9] = molecular target: Neu5Ac(a2-6)Gal(b1-4)GlcNAc(b1-2)Man(a1-3)Man(b1-4)GlcNAc(b1-4)GlcNAc
Procedure, shortened: as §1

[10] = molecular target: Neu5Ac(a2-6)Gal(b1-4)GlcNAc(b1-2)Man(a1-3)[Gal(b1-4)GlcNAc(b1-2)Man(a1-6)]Man(b1-4)GlcNAc(b1-4)GlcNAc
Procedure, shortened: as §1

[11] = molecular target: Neu5Ac(a2-6)Gal(b1-4)GlcNAc(b1-2)Man(a1-3)[GlcNAc(b1-4)][Neu5Ac(a2-6)Gal(b1-4)GlcNAc(b1-2)Man(a1-6)]Man(b1-4)GlcNAc(b1-4)GlcNAc
Procedure, shortened: as §1

[12] = molecular target: Neu5Ac(a2-6)Gal(b1-4)GlcNAc(b1-2)Man(a1-3)[Man(a1-6)]Man(b1-4)GlcNAc(b1-4)GlcNAc
Procedure, shortened: as §1

[13] = molecular target: Neu5Ac(a2-6)Gal(b1-4)GlcNAc(b1-2)Man(a1-3)[Neu5Ac(a2-3)Gal(b1-4)GlcNAc(b1-2)Man(a1-6)]Man(b1-4)GlcNAc(b1-4)GlcNAc
Procedure, shortened: as §1

[14] = molecular target: Neu5Ac(a2-6)Gal(b1-4)GlcNAc(b1-2)Man(a1-3)[Neu5Ac(a2-6)Gal(b1-4)GlcNAc(b1-2)Man(a1-6)]Man(b1-4)GlcNAc(b1-4)GlcNAc
Procedure, shortened: as §1

[15] = molecular target: Neu5Ac(a2-6)Gal(b1-4)GlcNAc(b1-2)Man(a1-3)[Neu5Ac(a2-6)Gal(b1-4)GlcNAc(b1-2)Man(a1-6)]Man(b1-4)GlcNAc(b1-4)[Fuc(a1-6)]GlcNAc
Procedure, shortened: as §1

[16] = molecular target: Neu5Ac(a2-6)Gal(b1-4)GlcNAc(b1-2)Man(a1-6)Man(b1-4)GlcNAc(b1-4)GlcNAc
Procedure, shortened: as §1

[17] = molecular target: Neu5Ac(a2-6)Gal(b1-4)GlcNAc(b1-2)Man(a1-6)[Gal(b1-4)GlcNAc(b1-2)Man(a1-3)]Man(b1-4)GlcNAc(b1-4)GlcNAc
Procedure, shortened: as §1

[18] = molecular target: Neu5Ac(a2-6)Gal(b1-4)GlcNAc(b1-2)Man(a1-6)[GlcNAc(b1-2)Man(a1-3)]Man(b1-4)GlcNAc(b1-4)GlcNAc
Procedure, shortened: as §1

[19] = molecular target: Neu5Ac(a2-6)Gal(b1-4)GlcNAc(b1-2)Man(a1-6)[Man(a1-3)]Man(b1-4)GlcNAc(b1-4)GlcNAc
Procedure, shortened: as §1

[20] = molecular target: Neu5Ac(a2-6)Gal(b1-4)GlcNAc(b1-2)[Neu5Ac(a2-6)Gal(b1-4)GlcNAc(b1-4)]Man(a1-3)[GlcNAc(b1-4)][Neu5Ac(a2-6)Gal(b1-4)GlcNAc(b1-2)[Neu5Ac(a2-6)Gal(b1-4)GlcNAc(b1-6)]Man(a1-6)]Man(b1-4)GlcNAc(b1-4)GlcNAc
Procedure, shortened: as §1

[21] = molecular target: Neu5Ac(a2-6)Gal(b1-4)GlcNAc(b1-2)[Neu5Ac(a2-6)Gal(b1-4)GlcNAc(b1-4)]Man(a1-3)[GlcNAc(b1-4)][Neu5Ac(a2-6)Gal(b1-4)GlcNAc(b1-4)Man(a1-6)]Man(b1-4)GlcNAc(b1-4)GlcNAc
Procedure, shortened: as §1

[22] = molecular target: Neu5Ac(a2-6)Gal(b1-4)GlcNAc(b1-2)[Neu5Ac(a2-6)Gal(b1-4)GlcNAc(b1-6)]Man(a1-6)[Neu5Ac(a2-6)Gal(b1-4)GlcNAc(b1-2)Man(a1-3)][GlcNAc(b1-4)]Man(b1-4)GlcNAc(b1-4)GlcNAc
Procedure, shortened: as §1

[23] = molecular target: Neu5Ac(a2-6)Gal(b1-4)GlcNAc(b1-3)Gal(b1-3)GlcNAc
Procedure, shortened: as §1

[24] = molecular target: Neu5Ac(a2-6)Gal(b1-4)GlcNAc(b1-3)Gal(b1-4)GlcNAc
Procedure, shortened: as §1

[25] = molecular target: Neu5Ac(a2-6)Gal(b1-4)GlcNAc(b1-3)Gal(b1-4)GlcNAc(b1-2)Man(a1-3)[Neu5Ac(a2-6)Gal(b1-4)GlcNAc(b1-3)Gal(b1-4)GlcNAc(b1-2)Man(a1-6)]GalNAc
Procedure, shortened: as §1

[26] = molecular target: Neu5Ac(a2-6)Gal(b1-4)GlcNAc(b1-3)Gal(b1-4)GlcNAc(b1-3)Gal(b1-4)GlcNAc
Procedure, shortened: as §1

[27] = molecular target: Neu5Ac(a2-6)Gal(b1-4)GlcNAc(b1-3)Gal(b1-4)GlcNAc(b1-3)Gal(b1-4)GlcNAc(b1-2)Man(a1-3)[Neu5Ac(a2-6)Gal(b1-4)GlcNAc(b1-3)Gal(b1-4)GlcNAc(b1-3)Gal(b1-4)GlcNAc(b1-2)Man(a1-6)]GalNAc
Procedure, shortened: as §1

[28] = molecular target: Neu5Ac(a2-6)Gal(b1-4)GlcNAc(b1-3)Gal(b1-4)GlcNAc(b1-3)GalNAc
Procedure, shortened: as §1

[29] = molecular target: Neu5Ac(a2-6)Gal(b1-4)GlcNAc(b1-3)Gal(b1-4)GlcNAc(b1-3)[Neu5Ac(a2-6)Gal(b1-4)GlcNAc(b1-3)Gal(b1-4)GlcNAc(b1-6)]GalNAc
Procedure, shortened: as §1

[30] = molecular target: Neu5Ac(a2-6)Gal(b1-4)GlcNAc(b1-3)Gal(b1-4)GlcNAc(b1-6)[Gal(b1-3)]GalNAc
Procedure, shortened: as §1

[31] = molecular target: Neu5Ac(a2-6)Gal(b1-4)GlcNAc(b1-3)Gal(b1-4)[Fuc(a1-3)]GlcNAc(b1-3)Gal(b1-4)[Fuc(a1-3)]GlcNAc
Procedure, shortened: as §1

[32] = molecular target: Neu5Ac(a2-6)Gal(b1-4)GlcNAc(b1-3)GalNAc
Procedure, shortened: as §1

[33] = molecular target: Neu5Ac(a2-6)Gal(b1-4)GlcNAc(b1-3)[Neu5Ac(a2-6)Gal(b1-4)GlcNAc(b1-6)]GalNAc
Procedure, shortened: as §1

[34] = molecular target: Neu5Ac(a2-6)Gal(b1-4)GlcNAc(b1-6)GalNAc
Procedure, shortened: as §1

[35] = molecular target: Neu5Ac(a2-6)Gal(b1-4)GlcNAc(b1-6)[Gal(b1-3)GlcNAc(b1-3)]Gal(b1-4)Glc
Procedure, shortened: as §1

B1: Gal 7 (Homo sapiens) (protein)
chain: MSNVPHKSSLPEGIRPGTVLRIRGLVPPNASRFHVNLLCGEEGGSDAALHFNPRLDTSEVVFNSKEGGSWGREESGPGVPFGRGQPFEVLIIASDDGFKAVVGDAQYHHFRHRLPLARVRLVEVGGDVQLDSVRIF
glycan array binding signal (z-score) (Neu5Ac(a2-3)GalNAc): -0.184
glycan array binding signal (z-score) [1]: -0.746
glycan array binding signal (z-score) [2]: -0.437
glycan array binding signal (z-score) [3]: -0.543
glycan array binding signal (z-score) [4]: -0.229
glycan array binding signal (z-score) [5]: 0.531
glycan array binding signal (z-score) (Neu5Ac(a2-6)Gal): -0.662
glycan array binding signal (z-score) [6]: -0.247
glycan array binding signal (z-score) (Neu5Ac(a2-6)Gal(b1-4)Glc): -0.373
glycan array binding signal (z-score) [7]: -0.346
glycan array binding signal (z-score) [8]: -0.022
glycan array binding signal (z-score) [9]: -0.478
glycan array binding signal (z-score) [10]: 0.309
glycan array binding signal (z-score) [11]: -0.221
glycan array binding signal (z-score) [12]: -0.264
glycan array binding signal (z-score) [13]: -0.375
glycan array binding signal (z-score) [14]: 0.15
glycan array binding signal (z-score) [15]: 0.696
glycan array binding signal (z-score) [16]: -0.68
glycan array binding signal (z-score) [17]: -0.648
glycan array binding signal (z-score) [18]: -0.416
glycan array binding signal (z-score) [19]: -0.401
glycan array binding signal (z-score) [20]: -0.265
glycan array binding signal (z-score) [21]: -0.269
glycan array binding signal (z-score) [22]: -0.386
glycan array binding signal (z-score) [23]: -0.117
glycan array binding signal (z-score) [24]: -0.592
glycan array binding signal (z-score) [25]: -0.261
glycan array binding signal (z-score) [26]: -0.504
glycan array binding signal (z-score) [27]: 0.962
glycan array binding signal (z-score) [28]: -0.31
glycan array binding signal (z-score) [29]: -0.005
glycan array binding signal (z-score) [30]: -0.481
glycan array binding signal (z-score) [31]: -0.111
glycan array binding signal (z-score) [32]: -0.378
glycan array binding signal (z-score) [33]: -0.368
glycan array binding signal (z-score) [34]: -0.213
glycan array binding signal (z-score) [35]: -0.239
